The whole screen tested about 46,000 compounds, of which about 60 (0.1%) were called active. Another 3% or so got no clear call; they are omitted. Calls come from the whole dose curve; as a rule, active = well fitted inhibition curve with a large enough effect; inconclusive = small, poorly fitted or top-dose-only effect; inactive = no such curve, though single readings can be large or run the other way. The list shows a part of the results.

The assay can be described thus: Primary qHTS assay for Inhibitors of ovarian cancer metastasis using an organotypic tumor microenvironment (TME) model.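 For activity change, negative = inhibition: plate controls were DMSO wells for no effect and tomatine positive control wells for full effect.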 Note: nearly all actives have a fitted effect of over 65% in size. As to conditions: SKOV3ip1-GFP adhesion/invasion on 3D omental model, fluorescence; series mostly up to 45.8 µM; activity change, negative = inhibition: at the top concentration. The procedure, abridged: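 Adhesion/invasion was scored as fixed GFP-labeled SKOV3ip1 cell counts (488/509 nm), normalized to DMSO and tomatine controls. Cancer cells in serum-free medium, with four compound doses (0.36-46 umol/L), sat 2 hr at RT then 16 hr at 37 C on a 48 hr fibroblast/mesothelial/ECM culture.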
For orientation: In qHTS, concentration-response curves come from the screen itself.
Take `CC(C)CN(CC(C)C)S(=O)(=O)c1ccc(C(=O)Nc2sc3c(c2C(N)=O)CCN(C(C)C)C3)cc1`: the “activity change, negative = inhibition” value was inactive: 47.4%.

Turning to `CCOCCc1nn2c(=O)cc(COC(=O)c3ccccc3NC(=O)CC(C)C)nc2s1`, the “activity change, negative = inhibition” value was inactive: 12.2%.

As to `Cc1cc(=O)n2[nH]c(NC(=O)c3cccc(Cl)c3)nc2n1`, the “activity change, negative = inhibition” value is inactive: 14.9%.

On to `COc1ccc(CNC(=O)Cn2ncc3c(=O)oc4ccc(C)cc4c32)c(OC)c1`, for which the “activity change, negative = inhibition” value is inactive: 12.2%.

For the compound `CC#C[C@]1(O)CC[C@H]2[C@@H]3CCC4=CC(=O)CCC4=C3[C@@H](c3ccc(N(C)C)cc3)C[C@@]21C`, the “activity change, negative = inhibition” value was inactive: 33.6%.

As for `CCCC(=O)Nc1nnc(SCc2cc(=O)n3cccc(C)c3n2)s1`, the “activity change, negative = inhibition” value was inactive: 9.81%.

Take `COc1ccc(-c2nc(CN3CCC(C(=O)NCc4ccc(F)cc4)CC3)c(C)o2)cc1OC`: the “activity change, negative = inhibition” value is inactive: -7.52%.

On to `COc1ccccc1CCNC(=O)CCCn1c(=O)c2cccn2c2cccnc21`, for which the “activity change, negative = inhibition” value is inactive: -1.22%.

On to `CC1=Nc2cc(C(=O)N3CCCCC3)ccc2Sc2ccc(C)cc21`, for which the call was inactive.

For `Cc1c(C(=O)NCc2ccc(OC(C)C)cc2)sc2ncnc(N(C)C3CCCCC3)c12`, the “activity change, negative = inhibition” value was inactive: -10.4%.

For the compound `Cc1ccc2[nH]c(CSc3nnc(NC(=O)COc4ccc(F)cc4)s3)cc(=O)c2c1`, the “activity change, negative = inhibition” value is inactive: 6.14%.

Take `Cc1ccccc1C(=O)n1nc(-c2ccco2)nc1NCc1cccs1`: the “activity change, negative = inhibition” value is inactive: -4.54%.

On to `CCOC(=O)c1c(NC(=O)/C=C/c2ccc(Cl)cc2)sc2c1CCC(C)C2` (configuration not stated), for which the compound was called inactive.

Regarding `COc1ccc(CCC(=O)NC2CC(=O)N(c3ccccc3)C2)cc1` (configuration not stated), the “activity change, negative = inhibition” value is inactive: 3.09%.

For the compound `O=C(NCC(c1ccc2c(c1)OCO2)N1CCN(c2ccccc2F)CC1)c1ccccc1F` (configuration not stated), the “activity change, negative = inhibition” value is inactive: -0.0113%.

Take `CCCN(CCC)CCNC(=O)c1nn(C)c2c1CS(=O)(=O)c1ccccc1-2`: the “activity change, negative = inhibition” value is inactive: 4.52%.

Regarding `COc1ccc(C2CC(=O)N(CC(=O)Nc3ccc(C(C)=O)cc3)c3ccccc3S2)cc1OC` (configuration not stated), the “activity change, negative = inhibition” value was inactive: 13.2%.

As for `CCOC(=O)c1c(C)oc2nc(C)nc(N3CCN(c4cccc(C(F)(F)F)c4)CC3)c12`, the “activity change, negative = inhibition” value was inactive: 2.11%.

Turning to `O=C(NCc1nc(-c2ccccc2)no1)c1ccco1`, the outcome was inactive.

As for `COc1ccc(CNC(=O)c2cc(-c3ccc(Cl)cc3)n[nH]2)cc1`, the “activity change, negative = inhibition” value was inactive: 7.07%.

On to `O=C(CCCCn1c(=O)c2ccccc2n(Cc2cccc(Cl)c2)c1=O)NCc1ccc2c(c1)OCO2`, for which the “activity change, negative = inhibition” value is inactive: 9.85%.

As for `COc1cc(Cl)c(C)cc1NC(=O)c1nn(C)c2c1CSc1ccccc1-2`, the compound was classed as inactive.

For the compound `O=S(=O)(NCCc1csc2nc(-c3ccc(Cl)cc3)nn12)c1ccc2c(c1)OCCO2`, the “activity change, negative = inhibition” value was inactive: -2.4%.

As to `CCCn1c2ccccc2c2cnn(CC(=O)NCCCN(Cc3ccccc3)C(C)C)c(=O)c21`, the “activity change, negative = inhibition” value is inactive: 9.26%.

Regarding `CCCN(CCC)CCCNC(=O)c1cn(C)c2ccc(S(=O)(=O)N3CCOCC3)cc2c1=O`, the “activity change, negative = inhibition” value is inactive: -5.87%.

On to `CCn1cc(C(=O)NCCc2ccccc2)c(=O)c2cc(S(=O)(=O)N3CCc4ccccc4C3)ccc21`, for which the outcome was inactive.

For `CCC(C)NC(=O)CN1C(=O)c2cccnc2Oc2ccc(C)cc21` (configuration not stated), the “activity change, negative = inhibition” value was inactive: 1.43%.

Consider `COc1ccc(CCNc2nc(SCc3cccc(F)c3)nc3ccccc23)cc1OC`, for which the compound was classed as inactive.

As to `CC(C)c1ccc(NC(=O)CN2C(=O)COc3ccc(S(=O)(=O)N4CCOCC4)cc32)cc1`, the “activity change, negative = inhibition” value was inactive: 8.03%.

Turning to `COc1ccc(-c2cc(C)no2)cc1S(=O)(=O)N1CCOc2ccc(Cl)cc21`, the compound was classed as inactive.

On to `COC(=O)c1ccc2c(=O)n(CCCCCC(=O)NCc3ccc(OC)cc3)c(=O)[nH]c2c1`, for which the “activity change, negative = inhibition” value was inactive: -9.65%.

On to `COc1ccc(Nc2cc(C(=O)NCCCN(C)C3CCCCC3)c3ccccc3n2)c(OC)c1`, for which the “activity change, negative = inhibition” value was inactive: 2.11%.

On to `COc1ccc2oc(=O)c(-c3nc(-c4ccc(C)c(C)c4)cs3)cc2c1`, for which the “activity change, negative = inhibition” value was inactive: 9%.

Consider `CCC(Sc1nc2ncccc2o1)C(=O)Nc1cccc(C)c1` (configuration not stated), for which the “activity change, negative = inhibition” value was inactive: 1.34%.

Take `Cc1ccc(C)c(NC(=O)c2ccc3c(c2)CCN3S(=O)(=O)c2ccccc2)c1`: the “activity change, negative = inhibition” value is inactive: -14.9%.

Consider `O=C(Nc1ccc(Cl)c(C(F)(F)F)c1)C(Cc1ccccc1)NS(=O)(=O)c1cccc2nsnc12` (configuration not stated), for which the “activity change, negative = inhibition” value was inactive: 1.62%.

As for `CCc1cc2c(cc3c(=O)n(CC(=O)NCCc4ccccc4)ncn32)s1`, the compound was called inactive.

For the compound `Cc1cc(C)cc(OCCSc2nc(-c3cccs3)nc3cc(=O)[nH]n23)c1`, the “activity change, negative = inhibition” value was inactive: -26%.

In the case of `COc1ccc(NC(=O)C2CCCN(S(=O)(=O)c3c(C)[nH]c(=O)[nH]c3=O)C2)cc1Cl` (configuration not stated), the “activity change, negative = inhibition” value is inactive: -1.85%.

For `Cc1nn(-c2ccc(N3CCOCC3)nn2)c(C)c1CCC(=O)Nc1ccc(F)cc1F`, the “activity change, negative = inhibition” value is inactive: -9.69%.

Regarding `O=C(CSc1nccn1Cc1ccc(Cl)cc1)Nc1ccc2c(c1)OCO2`, the “activity change, negative = inhibition” value was inactive: -1.22%.

For the compound `O=C(CN1N=C(c2ccccc2)CCC1=O)NCc1ccc(F)cc1Cl`, the “activity change, negative = inhibition” value is inactive: -22.7%.

`COc1cccc(-n2cc(C(=O)NCc3ccc(C)cc3)c3ccccc3c2=O)c1`: the “activity change, negative = inhibition” value is inactive: 0.615%.

Regarding `CCc1ccc(C2c3c(-c4ccccc4)n[nH]c3C(=O)N2c2ccc(C(=O)O)cc2)cc1` (configuration not stated), the “activity change, negative = inhibition” value is inactive: 74.6%.

For the compound `CCc1cccc(CC)c1NC(=O)N1Cc2[nH]nc(NC(=O)c3ccc(N4CCN(C)CC4)cc3)c2C1`, the “activity change, negative = inhibition” value was inactive: -40.2%.

On to `COc1ccc(CCNC(=O)Cn2cc(S(=O)(=O)Cc3ccccc3Cl)c3ccccc32)cc1OC`, for which the result was inactive.

For `CCSc1nnc2c(n1)OC(c1ccc(C)s1)Nc1ccccc1-2` (configuration not stated), the “activity change, negative = inhibition” value is inactive: 23.7%.

The values are drawn from PubChem BioAssay AID1963576 (National Center for Advancing Translational Sciences (NCATS), 2024).
